# According to PubChem BioAssay AID588795 (National Center for Advancing Translational Sciences (NCATS), 2011):
# About 1,400 (0.36%) of roughly 390,000 compounds were called active. This list was built around the results that the source calls inconclusive (neither active nor inactive); the mix of calls is not that of the screen. Calls come from the whole dose curve; as a rule, active = well fitted inhibition curve with a large enough effect; inconclusive = small, poorly fitted or top-dose-only effect; inactive = no such curve, though single readings can be large or run the other way. Potencies beside an inconclusive call are fits to weak or partial responses and may not hold up.
# Target: Flap endonuclease 1 (Homo sapiens) (UniProt P39748)
# Chain of UniProt P39748 (P39748 whole entry, looked up): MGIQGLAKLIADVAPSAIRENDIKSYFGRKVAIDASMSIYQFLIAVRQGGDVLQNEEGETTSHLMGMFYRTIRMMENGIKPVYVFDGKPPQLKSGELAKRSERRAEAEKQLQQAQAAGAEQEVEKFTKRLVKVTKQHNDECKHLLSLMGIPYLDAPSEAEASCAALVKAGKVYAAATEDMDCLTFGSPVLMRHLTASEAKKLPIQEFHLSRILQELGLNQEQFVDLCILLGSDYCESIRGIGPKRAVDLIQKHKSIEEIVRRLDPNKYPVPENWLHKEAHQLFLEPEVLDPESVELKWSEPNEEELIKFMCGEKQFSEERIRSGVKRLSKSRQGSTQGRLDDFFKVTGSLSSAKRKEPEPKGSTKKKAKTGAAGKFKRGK
# Assay: qHTS Assay for the Inhibitors of Human Flap endonuclease 1 (FEN1). Note: nearly all actives have a fitted effect of over 65% in size.
# Conditions: Recombinant FEN1 flap cleavage, fluorescence, 15 min; series mostly up to 114 µM; activity change, negative = inhibition: at the top concentration
# How it was run: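 In this screen, 50 nM flap DNA substrate was added to 10 nM FEN1 pretreated with compound for 15 min at room temperature; cleavage was followed with reads at 0 and 15 min, and Hill fitting gave concentration–response parameters.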
# % is set by controls: 0 for no effect and ±100 for the full control effect; potency is the fitted concentration of half-maximal effect; tags give direction and shape of the fitted curve.
Structure (SMILES),"activity change, negative = inhibition",Potency
CCN=c1scc(C)n1/N=C/c1cc(Br)c(O)c(Br)c1,inactive: 11.2%,
CC(C)c1ccc(S(=O)(=O)/N=C2/C=C(Sc3ncn[nH]3)C(=O)c3ccccc32)cc1,,active: 79.4 µM
Cc1cccnc1Nc1nc(-c2ccc(O)c(O)c2)cs1,,"inconclusive: 44.7 µM [inhibitor, partial curve, poor fit]"
CC1(C)CCC[C@]2(C)[C@H]3Cc4cc(O)ccc4O[C@]3(C)CC[C@@H]12,,"inconclusive: 50.1 µM [inhibitor, partial curve, poor fit]"
COc1ccc(NC(=O)c2cc(-c3ccco3)nc3ccccc23)cc1S(=O)(=O)N1CCOCC1,,"inconclusive: 35.5 µM [inhibitor, partial curve]"
CCOC(=O)Nc1cc2c(C)cc(=O)oc2cc1C,,"inconclusive: 100 µM [inhibitor, single point]"
c1ccc2c(-c3ccncc3)c[nH]c2c1,inactive: -10.3%,
CCOc1ccc(NS(=O)(=O)c2ccc3[nH]c4c(c3c2)CCCC4)cc1,,"inconclusive: 39.8 µM [inhibitor, partial curve, poor fit]"
CCCCNC(C(=O)Nc1ccc([N+](=O)[O-])cc1Br)c1ccccc1 (stereo not drawn),inactive: 3.3%,
COc1cc2ccccc2cc1C(=O)NC(=S)Nc1cccc(C(=O)O)c1,,"inconclusive: 79.4 µM [inhibitor, single point]"
CCN(CC)C1=CC2=CC(=C(C#N)C#N)CCC2CC1 (stereo not drawn),,"inconclusive: 22.4 µM [inhibitor, partial curve, poor fit]"
Nc1nc(NCCCN2CCOCC2)nc(Nc2cccc(Cl)c2)c1[N+](=O)[O-],,"inconclusive: 79.4 µM [inhibitor, partial curve]"
COc1ccc(Cc2nnc(NC(=O)c3ccc(C)cc3)s2)cc1OC,,"inconclusive: 25.1 µM [inhibitor, partial curve, poor fit]"
Cc1noc(C)c1NC(=O)Nc1ccc2c(c1)C(=O)N([C@H](C)CO)C[C@H](C)[C@@H](CN(C)C(=O)Nc1c(C)noc1C)O2,inactive: 22.2%,
Oc1ccc(Nc2ccnc3cc(Cl)ccc23)cc1,,"inconclusive: 70.8 µM [inhibitor, partial curve, poor fit]"
COc1cc2nc(N3CCCN(C)CC3)nc(N)c2cc1OC,,"inconclusive: 39.8 µM [inhibitor, partial curve, poor fit]"
CCOc1ccccc1C1NC(c2ccc3c(c2)OCO3)=CC(c2ccccc2O)N1 (stereo not drawn),inactive: -16.5%,
Cc1ccc(Oc2ccc(NC(=O)c3ccco3)cc2)cc1,,"inconclusive: 89.1 µM [inhibitor, partial curve, poor fit]"
Cc1[nH]c2ccccc2c1C(=O)CN(C)c1ccccc1,,"inconclusive: 89.1 µM [inhibitor, single point]"
CCOC(=O)NNc1ccc2nonc2c1[N+](=O)[O-],,active: 39.8 µM
CCOC(=O)COc1ccc2c(C#N)c3ccccn3c2c1,,"inconclusive: 44.7 µM [inhibitor, partial curve, poor fit]"
CC1CCN(C2=C(NS(=O)(=O)c3ccc(Br)cc3)C(=O)c3ccccc3C2=O)CC1,,"inconclusive: 0.631 µM [inhibitor, full curve, poor fit]"
O=C(NCCc1ccccc1F)C1CCC(=O)N(Cc2ccccc2F)C1 (stereo not drawn),inactive: -16.4%,

Structure (SMILES),"activity change, negative = inhibition",Potency
COc1ccc(-c2n[nH]c(C(F)(F)F)c2-c2cc3ccccc3o2)c(O)c1,inactive: -25.3%,
O=C(O)c1ccccc1NS(=O)(=O)c1ccc(NN=Cc2ccccc2F)c([N+](=O)[O-])c1,,"inconclusive: 50.1 µM [inhibitor, partial curve]"
Cc1c(-c2ccc(Br)cc2)nc2ccccn12,inactive: -10.8%,
O=C(NCc1ccccc1)c1nn(-c2ccccc2)nc1CO,inactive: -3.88%,
CCn1c2ccccc2c2cc(/C=N/n3c(-c4cc(C)[nH]n4)n[nH]c3=S)ccc21,,"inconclusive: 56.2 µM [inhibitor, partial curve, poor fit]"
CC(C)OC(=O)c1ccc(N2CCN(c3ccccc3F)CC2)nc1,,"inconclusive: 25.1 µM [inhibitor, partial curve, poor fit]"
Cn1cnnc1SCC(=O)Nc1ccc(OCc2ccccc2)cc1,,"inconclusive: 79.4 µM [inhibitor, partial curve, poor fit]"
COc1cccc(C(=O)c2cn(CC(=O)NCc3ccccc3)c3nc(C)ccc3c2=O)c1,inactive: 19.7%,
O=C(OCCN1C(=O)c2ccccc2C1=O)c1cc(=O)[nH]c2ccccc12,,"inconclusive: 70.8 µM [inhibitor, partial curve, poor fit]"
CCOc1ccc(N=Nc2cc(C(C)C)ccc2O)cc1,inactive: -3.96%,
COCCCNC(=O)/C(C#N)=C/c1ccc(OCC(=O)O)c(OC)c1,,"inconclusive: 56.2 µM [inhibitor, partial curve]"
Cc1cccc(N2CCN(C(=O)CN3CCSc4ccccc43)CC2C)c1 (stereo not drawn),inactive: -14.5%,
O=S(=O)(NN1CCOCC1)c1cc(Cl)cc(Cl)c1O,inactive: -6.41%,
CCOc1ccc(N=C2NC(=O)C(CC(=O)Nc3ccc(OC)cc3)S2)cc1 (stereo not drawn),,"inconclusive: 39.8 µM [inhibitor, single point]"
CC(=O)c1ccc(NC(=O)CSc2nc(=O)n(Cc3ccccn3)c3c2CCC3)cc1,inactive: -12.6%,
Cc1ccc2oc(=O)c(/C=C(\O)CC(C)C)nc2c1,,"inconclusive: 50.1 µM [inhibitor, partial curve]"
Cc1cccc(NCc2cccc3ccccc23)n1,,"inconclusive: 89.1 µM [inhibitor, partial curve, poor fit]"
C=C1C=C(C)n2ncc(C(=O)Nc3ccccc3O)c2N1,,"inconclusive: 14.1 µM [inhibitor, partial curve, poor fit]"
O=C(NCCOc1ccccc1)C1Nc2ccc(C(F)(F)F)cc2C2c3ccccc3CC12 (stereo not drawn),,"inconclusive: 50.1 µM [inhibitor, partial curve, poor fit]"
Cc1ccc(Nc2nc(N)nc(CSc3nc4ccccc4s3)n2)cc1,,"inconclusive: 44.7 µM [inhibitor, partial curve, poor fit]"
CC(=O)N(C(C)=O)N1C(=O)C2C3c4ccccc4C(c4ccccc43)C2C1=O (stereo not drawn),,"inconclusive: 17.8 µM [inhibitor, full curve, poor fit]"
Nc1ccc2c(c1)C(=Cc1cccnc1)c1ccccc1-2,,"inconclusive: 20 µM [inhibitor, partial curve, poor fit]"
Cc1nnc(SCC(=O)N2N=C(c3ccc(Cl)cc3)CC2c2ccco2)[nH]c1=O (stereo not drawn),,"inconclusive: 79.4 µM [inhibitor, partial curve, poor fit]"

Structure (SMILES),"activity change, negative = inhibition",Potency
COc1ccccc1C(=O)n1nc(-c2ccccc2)nc1NCc1ccc(Cl)cc1,inactive: -21.7%,
COc1cccc(CN2C(=O)NC3(CCCCCC3)C2=O)c1,inactive: 3.19%,
O=[N+]([O-])c1c(Nc2ccccn2)cc(Cl)c2nonc12,,"inconclusive: 56.2 µM [inhibitor, partial curve, poor fit]"
O=C(NCC1CCCO1)c1ccc(Cn2c(=S)[nH]c3ccccc3c2=O)cc1 (stereo not drawn),inactive: -2.82%,
CCOC(=O)c1ccc2c(c1)nc(COc1ccc3ccccc3c1)n2CC,,"inconclusive: 89.1 µM [inhibitor, partial curve, poor fit]"
Cc1ccc(N2C(=O)c3cccc4c(N)ccc(c34)C2=O)c2cccnc12,,"inconclusive: 79.4 µM [inhibitor, partial curve, poor fit]"
Fc1ccc(-n2cc(-c3ccccc3)c3c(=S)nc[nH]c32)cc1,inactive: -11.7%,
COc1ccc(NC(=O)Nn2cnnc2)cc1OC,,"inconclusive: 89.1 µM [inhibitor, single point]"
CCC[C@@H](CN1CCC[C@H]1CN1C(N)=NC[C@@H]1Cc1ccccc1)N1C[C@@H](Cc2ccccc2)N(CCCC2CCCC2)C1=N,inactive: -5.11%,
Cc1ccc(-c2ccc(/C=C3\SC(N4CCOCC4)=NC3=O)o2)cc1,,"inconclusive: 39.8 µM [inhibitor, partial curve, poor fit]"
COc1cc(C2C(C#N)=C(N)OC3=C2C(=O)CCC3)c([N+](=O)[O-])cc1OC (stereo not drawn),,"inconclusive: 50.1 µM [inhibitor, partial curve]"
CCOc1ccccc1CNC(=O)Cn1nc(C)c2c(C)n(-c3ccc(C)cc3)nc2c1=O,,"inconclusive: 89.1 µM [inhibitor, partial curve, poor fit]"
Cc1cc(=O)oc2cc(OCC(=O)NC3CC(C)(C)NC(C)(C)C3)c(Cl)cc12,,"inconclusive: 25.1 µM [inhibitor, partial curve, poor fit]"
CC(=O)Nc1ccc2nc(CN3CCN(CC=C(C)C)C(CCO)C3)ccc2c1 (stereo not drawn),inactive: -8.39%,
CCCCCCCN(c1ccccc1)[C@@H]1C[C@H]2CCCC(=O)N3CC[C@@H](C1)[C@@H]23,,"inconclusive: 79.4 µM [inhibitor, single point]"
CN1/C(=C/c2cccc[n+]2C)Sc2ccccc21,,active: 44.7 µM
COc1ccc(Cn2c(CO)cnc2SCc2ccc(C)cc2)cc1,inactive: 6.71%,
COc1ccc(Cl)cc1N1CCN(CCNC(=O)Nc2ccccc2C)CC1,,"inconclusive: 89.1 µM [inhibitor, partial curve, poor fit]"
C/C(=N\NC(=O)c1ccc(N2CCCC2=O)cc1)c1ccccc1,inactive: 2.32%,
COc1cc(C(=O)NNC(=O)c2ccc(NC(C)=O)cc2)cc(OC)c1OC,inactive: -0.218%,
CC(C)CCNC(=O)C1CCN(C(=O)c2cc3sccc3n2Cc2ccc(Cl)cc2)CC1,inactive: 2.7%,
CCOC(=O)COc1ccc(Br)cc1/C=C/c1[nH]c(=O)[nH]c(=O)c1[N+](=O)[O-],,"inconclusive: 70.8 µM [inhibitor, single point]"
